Where two headings read alike, the source gives them in different places.

For data set [1] the following is noted: cited from earlier work.
Data set [2] in a line: solubility in water. To be noted: at 25° C., converted from mg/L.

As to `CC/C=C\CCO` [cis-3-hexenol], the solubility in water result in data set [1] (at 25° C.) is recorded as “about 16000 mg/L”.
Regarding `OCCOc1ccccc1` [phenoxyethanol], the solubility in water result in data set [1] (at 20° C.) is listed as “about 2.4 % by weight”.
Turning to `C=CC(C)CCCC(C)(C)O` (stereo not drawn) [dihydro-myrcenol], the solubility in water result in data set [2] is recorded as “about 0.0016 mol/L”.

The values above are taken from patent US20130109613A1, “FIXING OF PERFUME ON WET SKIN” (Beiersdorf AG, priority 2011, published 2013).
